Some of the results follow. Sequences were assembled here from the parent chain. Values near 0.05 are background.
B1: TEV protease; numbered along this chain (parent)
chain: MGESLFKGPRDYNPISSSICHLTNESDGHTTSLYGIGFGPFIITNKHLFRRNNGTLVVQSLHGVFKVKDTTTLQQHLVDGRDMIIIRMPKDFPPFPQKLKFREPQREERICLVTTNFQTKSMSSMVSDTSCTFPSGDGIFWKHWIQTKDGQCGSPLVSTRDGFIVGIHSASNFTNTNNYFTSVPKNFMELLTNQEAQQWVSGWRLNADSVLWGGHKVFMVKPEEPFQPVKEATQL

Variants of: B1
Assay: raw area under fraction-flipped curve 0-4 h after induction (AUC4h, not background-subtracted), DNA-recorder readout of cleavage of the substrate (dimensionless); higher = more cleavage of the substrate by the protease variant
Conditions: temperature: 34 °C; time window: 0-4 h after rhamnose induction
Experimental: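 In vivo DNA recorder in E. coli TOP10(DE3) ΔrhaA at 34 °C. Each TEVp single-site mutant (parent TEVp 0) is paired with a single-site variant of the 7-mer TEVs (canonical ENLYFQ|S). The substrate sits between flexible linkers in a Bxb1-sfGFP-TEVs-SsrA fusion, so cleavage stabilises Bxb1 and speeds flipping of a recombination array, read by NGS. The value is the raw area under the fraction-flipped curve over 0-4 h after rhamnose induction (AUC4h), with ≥20 reads per time point. It is not background-subtracted; inactive controls average about 0.047.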
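Note: Bxb1 expression induced with 0.2% (w/v) L-rhamnose at OD600 near 0.5, cultures sampled hourly, flipped fraction per protease–substrate barcode pair counted by paired-end Illumina sequencing.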

| Variant | area with substrate ENLYFQA | area with substrate ENLYFQC | area with substrate ENLYFQD | area with substrate ENLYFQF | area with substrate ENLYFQG | area with substrate ENLYFQH | area with substrate ENLYFQI | area with substrate ENLYFQK | area with substrate ENLYFQL | area with substrate ENLYFQM | area with substrate ENLYFQN | area with substrate ENLYFQR | area with substrate ENLYFQS | area with substrate ENLYFQT | area with substrate ENLYFQV | area with substrate ENLYFQW | area with substrate ENLYFQY | area with substrate ENLYFQP | area with substrate ENLYFQQ | area with substrate ENLYFQE |
| --- | --- | --- | --- | --- | --- | --- | --- | --- | --- | --- | --- | --- | --- | --- | --- | --- | --- | --- | --- | --- |
| Q234S | 0.168 | 0.129 | 0.0756 | 0.0792 | 0.084 | 0.0744 | 0.072 | 0.058 | 0.062 | 0.0921 | 0.0748 | 0.0612 | 0.102 | 0.0707 | 0.0424 | 0.0766 | 0.0788 |  |  |  |
| Q234T | 0.0857 | 0.109 | 0.0857 | 0.102 | 0.0743 |  | 0.0662 | 0.0633 | 0.0639 | 0.0678 | 0.0789 | 0.0629 | 0.0989 | 0.0604 | 0.0715 | 0.0635 | 0.0738 | 0.0508 | 0.0711 |  |
| P9C |  | 0.13 |  | 0.0731 |  |  | 0.0444 |  | 0.0667 | 0.085 | 0.0879 | 0.0671 | 0.101 | 0.0667 |  |  | 0.093 | 0.0496 |  |  |
| L5P |  | 0.0403 |  | 0.0577 | 0.0649 | 0.076 | 0.0755 |  |  |  |  | 0.0666 | 0.0659 | 0.0668 | 0.0614 |  | 0.0522 |  |  |  |
| M219T | 0.122 | 0.105 |  |  |  | 0.0918 |  |  | 0.0682 | 0.0714 | 0.0836 | 0.0558 | 0.104 | 0.0606 |  |  | 0.0855 | 0.0538 |  |  |
| E3F |  | 0.135 |  |  |  | 0.128 | 0.0608 | 0.0604 | 0.0609 |  |  | 0.0783 | 0.128 |  | 0.0616 |  | 0.0875 | 0.0222 |  |  |
| V220G | 0.135 | 0.112 | 0.0729 | 0.0911 | 0.108 | 0.0989 | 0.0739 | 0.0611 | 0.0653 |  | 0.0955 | 0.067 | 0.118 | 0.0558 |  | 0.0637 | 0.075 | 0.0502 | 0.082 |  |
| V220E | 0.146 | 0.108 |  | 0.0475 | 0.109 | 0.0858 |  | 0.0607 | 0.0604 | 0.0773 | 0.0639 | 0.0647 | 0.11 |  | 0.0565 | 0.0552 | 0.0508 | 0.0557 |  |  |
| G213R | 0.0597 | 0.0557 | 0.0466 |  | 0.0725 | 0.0566 |  | 0.0604 | 0.0592 | 0.0626 | 0.0645 | 0.0523 | 0.0611 | 0.0629 | 0.0594 | 0.0543 | 0.0545 | 0.0764 | 0.0616 | 0.0819 |
| S209D | 0.105 | 0.115 |  |  |  | 0.0819 |  | 0.0549 | 0.041 | 0.0844 | 0.0717 |  | 0.118 |  | 0.0539 | 0.0608 |  | 0.0607 |  |  |
| P222I | 0.0887 | 0.0969 | 0.0846 | 0.0629 | 0.0924 |  | 0.0531 |  | 0.0583 | 0.0958 | 0.0748 | 0.0642 | 0.0927 | 0.0654 | 0.0585 | 0.0718 | 0.0587 |  | 0.0792 |  |
| P222A | 0.103 | 0.133 | 0.0775 | 0.0742 | 0.0846 |  | 0.0491 | 0.056 |  |  |  |  | 0.0954 | 0.0602 | 0.0622 | 0.0651 | 0.0779 | 0.0589 |  | 0.0723 |
| A196F | 0.121 | 0.11 |  |  | 0.0824 | 0.0669 | 0.0612 | 0.0682 | 0.0646 | 0.0762 | 0.083 | 0.0468 | 0.108 | 0.0699 |  |  | 0.0934 | 0.0561 | 0.0853 | 0.0724 |
| A196W | 0.0988 |  | 0.0573 |  |  |  | 0.0614 |  |  |  | 0.084 | 0.0656 | 0.0985 |  |  | 0.062 | 0.0937 | 0.0552 |  | 0.0584 |
| A196D | 0.1 |  |  | 0.0633 | 0.0975 | 0.107 | 0.0701 | 0.0632 | 0.069 | 0.0848 | 0.073 |  | 0.0981 |  |  | 0.0518 | 0.0666 | 0.0556 | 0.0708 |  |
| W212G | 0.0666 |  | 0.0658 |  | 0.157 | 0.0571 | 0.0582 | 0.0546 |  |  |  |  | 0.0714 | 0.0762 | 0.0597 | 0.0607 | 0.0596 | 0.0811 | 0.0605 |  |
| S4Y |  | 0.123 | 0.0729 | 0.11 |  | 0.094 | 0.0653 |  | 0.066 | 0.118 |  | 0.0612 | 0.145 | 0.0758 |  | 0.0715 |  |  |  |  |
| S4I |  | 0.138 |  | 0.0307 | 0.118 | 0.105 |  | 0.0675 | 0.0549 |  | 0.0589 | 0.0736 | 0.119 | 0.0724 |  | 0.079 | 0.103 |  | 0.0686 |  |
| G214D | 0.0919 | 0.092 |  | 0.0594 |  |  | 0.0644 |  |  |  | 0.0583 | 0.0522 | 0.0856 | 0.0515 |  | 0.0674 |  | 0.0494 |  |  |
| N13M |  | 0.114 | 0.0812 |  |  | 0.0701 | 0.0512 | 0.0679 | 0.0853 | 0.0972 | 0.0955 | 0.0541 | 0.107 | 0.0675 |  |  |  |  | 0.0945 |  |
| V210N | 0.0709 | 0.0819 | 0.0714 | 0.0457 | 0.0999 |  | 0.0472 | 0.0621 | 0.0592 | 0.083 | 0.0612 | 0.0697 | 0.075 | 0.0627 | 0.0626 | 0.0554 |  |  | 0.0698 |  |
| L211M | 0.115 |  | 0.0837 | 0.102 |  | 0.118 | 0.0487 |  | 0.0643 | 0.0727 | 0.0594 | 0.0649 | 0.106 | 0.0691 | 0.0711 | 0.0675 | 0.0721 | 0.0544 | 0.0986 |  |
| L235E | 0.118 |  | 0.0786 |  |  | 0.106 |  |  |  | 0.0828 | 0.0885 | 0.0552 | 0.119 | 0.0891 |  |  |  |  |  |  |
| L235Q | 0.134 | 0.106 |  | 0.0813 | 0.114 | 0.0737 | 0.0539 |  | 0.0655 |  | 0.114 | 0.0615 | 0.11 | 0.0689 | 0.0667 | 0.0774 | 0.0669 | 0.0516 |  |  |
| D11F |  | 0.096 |  |  | 0.103 | 0.0765 | 0.046 | 0.0507 | 0.0534 | 0.116 | 0.0623 | 0.0608 | 0.0973 | 0.0594 |  | 0.0536 | 0.0714 | 0.0565 | 0.0691 |  |
| K221S | 0.105 | 0.112 | 0.0725 |  | 0.132 | 0.0715 | 0.0352 |  | 0.0532 | 0.0849 | 0.082 | 0.0618 | 0.0984 | 0.059 | 0.0594 | 0.0672 | 0.0673 |  |  | 0.0647 |

— the supplement of paper PMC12217912
